# Data taken from the supplement of paper PMC8728848.
# Some of the results follow.
# Assays:
# Experiment in all cases: glycan array binding signal (z-score within array); higher = stronger binding
# Conditions in all cases: glycan notation: IUPAC condensed, linker removed
# Fuc(a1-2)Gal = biological target: Fuc(a1-2)Gal
# Outline: (§1)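 Arrays were curated from the Consortium for Functional Glycomics database, 3228 in total, and kept only where the protein sequence was available. Binding is expressed as a within-array Z-score. This score was averaged across arrays of the same protein sequence at different concentrations or buffers and across linkers, and negative values can be read as non-binding.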
# Fuc(a1-2)Gal(b1-3)GalNAc = biological target: Fuc(a1-2)Gal(b1-3)GalNAc
# Outline: as §1
# [1] = biological target: Fuc(a1-2)Gal(b1-3)GalNAc(a1-3)[Fuc(a1-2)]Gal(b1-4)Glc
# Outline: as §1
# [2] = biological target: Fuc(a1-2)Gal(b1-3)GalNAc(a1-3)[Fuc(a1-2)]Gal(b1-4)GlcNAc
# Outline: as §1
# [3] = biological target: Fuc(a1-2)Gal(b1-3)GalNAc(b1-3)Gal
# Outline: as §1
# [4] = biological target: Fuc(a1-2)Gal(b1-3)GalNAc(b1-3)Gal(a1-4)Gal(b1-4)Glc
# Outline: as §1
# [5] = biological target: Fuc(a1-2)Gal(b1-3)GalNAc(b1-4)[Neu5Ac(a2-3)]Gal(b1-4)Glc
# Outline: as §1
# Fuc(a1-2)Gal(b1-3)GlcNAc = biological target: Fuc(a1-2)Gal(b1-3)GlcNAc
# Outline: as §1
# [6] = biological target: Fuc(a1-2)Gal(b1-3)GlcNAc(b1-2)Man(a1-3)[Fuc(a1-2)Gal(b1-3)GlcNAc(b1-2)Man(a1-6)]Man(b1-4)GlcNAc(b1-4)GlcNAc
# Outline: as §1
# [7] = biological target: Fuc(a1-2)Gal(b1-3)GlcNAc(b1-2)Man(a1-3)[Fuc(a1-2)Gal(b1-3)GlcNAc(b1-2)Man(a1-6)]Man(b1-4)GlcNAc(b1-4)[Fuc(a1-6)]GlcNAc
# Outline: as §1
# [8] = biological target: Fuc(a1-2)Gal(b1-3)GlcNAc(b1-3)Gal(b1-4)Glc
# Outline: as §1
# [9] = biological target: Fuc(a1-2)Gal(b1-3)GlcNAc(b1-3)GalNAc
# Outline: as §1
# [10] = biological target: Fuc(a1-2)Gal(b1-3)GlcNAc(b1-3)[Fuc(a1-2)Gal(b1-3)GlcNAc(b1-6)]GalNAc
# Outline: as §1
# [11] = biological target: Fuc(a1-2)Gal(b1-3)GlcNAc(b1-3)[Gal(b1-4)GlcNAc(b1-6)]Gal(b1-4)Glc
# Outline: as §1
# [12] = biological target: Fuc(a1-2)Gal(b1-3)GlcNAc(b1-3)[Neu5Ac(a2-6)Gal(b1-4)GlcNAc(b1-6)]Gal(b1-4)Glc
# Outline: as §1
# [13] = biological target: Fuc(a1-2)Gal(b1-3)GlcNAc6S
# Outline: as §1
# [14] = biological target: Fuc(a1-2)Gal(b1-3)[Fuc(a1-4)]GlcNAc
# Outline: as §1
# [15] = biological target: Fuc(a1-2)Gal(b1-3)[Fuc(a1-4)]GlcNAc(b1-2)Man(a1-3)[Fuc(a1-2)Gal(b1-3)[Fuc(a1-4)]GlcNAc(b1-2)Man(a1-3)]Man(b1-4)GlcNAc(b1-4)GlcNAc
# Outline: as §1
# [16] = biological target: Fuc(a1-2)Gal(b1-3)[Fuc(a1-4)]GlcNAc(b1-2)Man(a1-3)[Fuc(a1-2)Gal(b1-3)[Fuc(a1-4)]GlcNAc(b1-2)Man(a1-6)]Man(b1-4)GlcNAc(b1-4)[Fuc(a1-6)]GlcNAc(b1-4)[Fuc(a1-6)]GlcNAc
# Outline: as §1
# [17] = biological target: Fuc(a1-2)Gal(b1-3)[Fuc(a1-4)]GlcNAc(b1-3)[Fuc(a1-3)[Gal(b1-4)]GlcNAc(b1-6)]Gal(b1-4)Glc
# Outline: as §1
# [18] = biological target: Fuc(a1-2)Gal(b1-3)[Fuc(a1-4)]GlcNAc(b1-3)[Gal(b1-4)GlcNAc(b1-6)]Gal(b1-4)Glc
# Outline: as §1
# Fuc(a1-2)Gal(b1-4)Glc = biological target: Fuc(a1-2)Gal(b1-4)Glc
# Outline: as §1
# Fuc(a1-2)Gal(b1-4)Glc6S = biological target: Fuc(a1-2)Gal(b1-4)Glc6S
# Outline: as §1
# Fuc(a1-2)Gal(b1-4)GlcNAc = biological target: Fuc(a1-2)Gal(b1-4)GlcNAc
# Outline: as §1
# [19] = biological target: Fuc(a1-2)Gal(b1-4)GlcNAc(b1-2)Man
# Outline: as §1
# [20] = biological target: Fuc(a1-2)Gal(b1-4)GlcNAc(b1-2)Man(a1-3)[Fuc(a1-2)Gal(b1-4)GlcNAc(b1-2)Man(a1-6)]Man(b1-4)GlcNAc(b1-4)GlcNAc
# Outline: as §1
# [21] = biological target: Fuc(a1-2)Gal(b1-4)GlcNAc(b1-2)Man(a1-3)[Fuc(a1-2)Gal(b1-4)GlcNAc(b1-2)Man(a1-6)]Man(b1-4)GlcNAc(b1-4)[Fuc(a1-6)]GlcNAc
# Outline: as §1
# [22] = biological target: Fuc(a1-2)Gal(b1-4)GlcNAc(b1-2)[Fuc(a1-2)Gal(b1-4)GlcNAc(b1-4)]Man(a1-3)[Fuc(a1-2)Gal(b1-4)GlcNAc(b1-2)Man(a1-6)]Man(b1-4)GlcNAc(b1-4)GlcNAc
# Outline: as §1
# [23] = biological target: Fuc(a1-2)Gal(b1-4)GlcNAc(b1-3)Gal(b1-4)GlcNAc
# Outline: as §1
# [24] = biological target: Fuc(a1-2)Gal(b1-4)GlcNAc(b1-3)Gal(b1-4)GlcNAc(b1-2)Man(a1-3)[Fuc(a1-2)Gal(b1-4)GlcNAc(b1-3)Gal(b1-4)GlcNAc(b1-2)Man(a1-6)]Man(b1-4)GlcNAc(b1-4)GlcNAc
# Outline: as §1
# [25] = biological target: Fuc(a1-2)Gal(b1-4)GlcNAc(b1-3)Gal(b1-4)GlcNAc(b1-3)Gal(b1-4)GlcNAc
# Outline: as §1
# [26] = biological target: Fuc(a1-2)Gal(b1-4)GlcNAc(b1-3)GalNAc
# Outline: as §1
# [27] = biological target: Fuc(a1-2)Gal(b1-4)GlcNAc(b1-3)[Fuc(a1-2)Gal(b1-4)GlcNAc(b1-6)]GalNAc
# Outline: as §1
# [28] = biological target: Fuc(a1-2)Gal(b1-4)GlcNAc(b1-3)[Fuc(a1-3)[Gal(b1-4)]GlcNAc(b1-6)]Gal(b1-4)Glc
# Outline: as §1
# [29] = biological target: Fuc(a1-2)Gal(b1-4)GlcNAc(b1-6)GalNAc
# Outline: as §1
# [30] = biological target: Fuc(a1-2)Gal(b1-4)GlcNAc6S
# Outline: as §1
# [31] = biological target: Fuc(a1-2)Gal(b1-4)[Fuc(a1-3)]GlcNAc
# Outline: as §1
# [32] = biological target: Fuc(a1-2)Gal(b1-4)[Fuc(a1-3)]GlcNAc(b1-2)Man(a1-3)[Fuc(a1-2)Gal(b1-4)[Fuc(a1-3)]GlcNAc(b1-2)Man(a1-6)]Man(b1-4)GlcNAc(b1-4)[Fuc(a1-6)]GlcNAc
# Outline: as §1
# [33] = biological target: Fuc(a1-2)Gal(b1-4)[Fuc(a1-3)]GlcNAc(b1-2)[Fuc(a1-2)Gal(b1-4)[Fuc(a1-3)]GlcNAc(b1-4)]Man(a1-3)[Fuc(a1-2)Gal(b1-4)[Fuc(a1-3)]GlcNAc(b1-2)Man(a1-6)]Man(b1-4)GlcNAc(b1-4)GlcNAc
# Outline: as §1
# [34] = biological target: Fuc(a1-2)Gal(b1-4)[Fuc(a1-3)]GlcNAc(b1-3)Gal(b1-4)[Fuc(a1-3)]GlcNAc
# Outline: as §1
# [35] = biological target: Fuc(a1-2)Gal(b1-4)[Fuc(a1-3)]GlcNAc(b1-3)Gal(b1-4)[Fuc(a1-3)]GlcNAc(b1-3)Gal(b1-4)[Fuc(a1-3)]GlcNAc
# Outline: as §1
# [36] = biological target: Fuc(a1-2)Gal(b1-4)[Fuc(a1-3)]GlcNAc(b1-3)GalNAc
# Outline: as §1
# [37] = biological target: Fuc(a1-2)Gal(b1-4)[Fuc(a1-3)]GlcNAc(b1-3)[Neu5Ac(a2-6)Gal(b1-4)GlcNAc(b1-6)]Gal(b1-4)Glc
# Outline: as §1
# [38] = biological target: Fuc(a1-2)Gal3S(b1-4)GlcNAc
# Outline: as §1
# [39] = biological target: Fuc(a1-2)Gal6S(b1-3)GlcNAc
# Outline: as §1
binder,measurement,setting,value
Epa13 (Candida glabrata) (protein) MGSSHHHHHHSSGLVPRGSHMASDSSENGYAHGCSPSIRAKLKPGLSMEIYSYALRPTDDHCWDSAYLDPMFPRTGYLTHKLLGKAEGIIGPLNFLAKNPACIPAVSTLPLAFHFPKPFTITNFTMLLYGYLSPKKTGKYTFKLLADDLLLMNFGADNAFDCCSHDATKDNIGEYVAYSVWPGVNKNVTVYLESGIYYPLRLFFNNRDAIAQLDFAYYFNDSPIRQTDFSGMFFSIPDSVKCPANI,glycan array binding signal (z-score),Fuc(a1-2)Gal,-0.46
same,glycan array binding signal (z-score),Fuc(a1-2)Gal(b1-3)GalNAc,-0.298
same,glycan array binding signal (z-score),[1],-0.365
same,glycan array binding signal (z-score),[2],-0.269
same,glycan array binding signal (z-score),[3],0.112
same,glycan array binding signal (z-score),[4],-0.036
same,glycan array binding signal (z-score),[5],-0.255
same,glycan array binding signal (z-score),Fuc(a1-2)Gal(b1-3)GlcNAc,-0.422
same,glycan array binding signal (z-score),[6],-0.07
same,glycan array binding signal (z-score),[7],-0.493
same,glycan array binding signal (z-score),[8],-0.434
same,glycan array binding signal (z-score),[9],-0.447
same,glycan array binding signal (z-score),[10],0.191
same,glycan array binding signal (z-score),[11],-0.241
same,glycan array binding signal (z-score),[12],-0.32
same,glycan array binding signal (z-score),[13],-0.001
same,glycan array binding signal (z-score),[14],-0.516
same,glycan array binding signal (z-score),[15],0.221
same,glycan array binding signal (z-score),[16],-0.221
same,glycan array binding signal (z-score),[17],-0.604
same,glycan array binding signal (z-score),[18],-0.097
same,glycan array binding signal (z-score),Fuc(a1-2)Gal(b1-4)Glc,-0.492
same,glycan array binding signal (z-score),Fuc(a1-2)Gal(b1-4)Glc6S,0.064
same,glycan array binding signal (z-score),Fuc(a1-2)Gal(b1-4)GlcNAc,-0.472
same,glycan array binding signal (z-score),[19],0.385
same,glycan array binding signal (z-score),[20],-0.344
same,glycan array binding signal (z-score),[21],-0.168
same,glycan array binding signal (z-score),[22],-0.499
same,glycan array binding signal (z-score),[23],-0.413
same,glycan array binding signal (z-score),[24],-0.157
same,glycan array binding signal (z-score),[25],-0.321
same,glycan array binding signal (z-score),[26],-0.185
same,glycan array binding signal (z-score),[27],-0.139
same,glycan array binding signal (z-score),[28],-0.523
same,glycan array binding signal (z-score),[29],-0.177
same,glycan array binding signal (z-score),[30],-0.047
same,glycan array binding signal (z-score),[31],-0.412
same,glycan array binding signal (z-score),[32],-0.019
same,glycan array binding signal (z-score),[33],0.455
same,glycan array binding signal (z-score),[34],-0.395
same,glycan array binding signal (z-score),[35],-0.445
same,glycan array binding signal (z-score),[36],2.14
same,glycan array binding signal (z-score),[37],-0.526
same,glycan array binding signal (z-score),[38],-0.344
same,glycan array binding signal (z-score),[39],-0.027
